Among all 150,000 compounds or so, about 6,500 (4.3%) were called active. This list was built around the results that the source calls inconclusive (neither active nor inactive); the mix of calls is not that of the screen. Calls come from the whole dose curve; as a rule, active = well fitted inhibition curve with a large enough effect (not every such curve was filed as active); inconclusive = small, poorly fitted or top-dose-only effect, or another doubt; inactive = no such curve, though single readings can be large or run the other way. Potencies of inconclusive entries are left out as doubtful fits.
The molecules below were run against 15-hydroxyprostaglandin dehydrogenase [NAD(+)] (Homo sapiens) (UniProt P15428) (assay: qHTS Assay for Inhibitors of HPGD (15-Hydroxyprostaglandin Dehydrogenase)). Details: purified HPGD, NADH fluorescence kinetic, PGE2 substrate; activity change, negative = inhibition: active compounds read low.
Method in brief: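 NADH formation kinetics: reaction with 30 uM PGE2 and 1 mM NAD+ (final), 20 nM enzyme, Tris-HCl pH 8 with Tween 20, after 15 min compound preincubation at room temperature. Fluorescence change, last versus first of five reads.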
% is set by controls: 0 for no effect and ±100 for the full control effect; potency is the fitted concentration of half-maximal effect; tags give direction and shape of the fitted curve.

UniProt P15428, sequence (P15428 whole entry, looked up): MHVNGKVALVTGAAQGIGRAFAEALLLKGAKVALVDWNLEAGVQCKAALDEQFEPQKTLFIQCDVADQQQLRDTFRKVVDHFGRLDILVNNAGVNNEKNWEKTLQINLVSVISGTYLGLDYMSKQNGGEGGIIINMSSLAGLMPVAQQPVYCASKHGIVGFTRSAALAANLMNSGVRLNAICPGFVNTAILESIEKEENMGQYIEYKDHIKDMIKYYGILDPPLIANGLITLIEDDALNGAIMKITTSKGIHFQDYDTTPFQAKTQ

Q: Which Potency does the source give for `CC(C)Cc1nnc(NS(=O)(=O)Cc2ccccc2)s1` here?
A: active: 20 µM

Q: For `O=C(CSc1nc2c(cnn2-c2ccc(F)cc2)c(=O)[nH]1)N1N=C(c2cccs2)CC1c1ccc(F)cc1` (configuration not stated), which Potency is on record?
A: inconclusive [inhibitor, partial curve]

Q: How did the Potency turn out when `CC(=O)Nc1nc(=S)ss1` was run?
A: active: 25.1 µM

Q: Which Potency does the source give for `CCCCn1c(NC(=O)c2ccco2)c(S(=O)(=O)c2ccc(C)cc2)c2nc3ccccc3nc21` here?
A: inconclusive [inhibitor, partial curve]

Q: For `COc1ccc(CCNC(=O)c2cc(-c3ccccc3OC)on2)cc1OC`, which Potency is on record?
A: inconclusive [inhibitor, single point]

Q: For `Cc1ccccc1C(=O)OCCCN=C1NS(=O)(=O)c2ccccc21`, which Potency is on record?
A: inconclusive [inhibitor, partial curve]

Q: How did the Potency turn out when `O=C(OCC(=O)N1CCCCC1)c1cc(NS(=O)(=O)c2ccc(Cl)c([N+](=O)[O-])c2)ccc1O` was run?
A: active: 8.91 µM

Q: Which Potency does the source give for `COc1ccc(Cn2c(/C=C/c3ccccc3)nc3ccccc32)cc1` here?
A: inconclusive [inhibitor, partial curve]

Q: With `Cc1ccc(C2C(C#N)=C(N)Oc3cc4c(cc32)OCO4)cc1` (configuration not stated) as the molecule, how does the activity change, negative = inhibition read?
A: inactive: -21.9%

Q: How did the activity change, negative = inhibition turn out when `O=C(CCc1nc(-c2ccccc2F)no1)NCCc1ccccc1Cl` was run?
A: inactive: -6.33%

Q: Which Potency does the source give for `COc1cc(/C=C/C(=O)Nc2ccc(N3CCCCC3)c(S(=O)(=O)Nc3ccccc3Cl)c2)cc(OC)c1OC` here?
A: inconclusive [inhibitor, partial curve]

Q: `Cc1cc(C)c(C)c(S(=O)(=O)ON2C(=O)c3ccccc3C2=O)c1C` was tested. Which Potency did it give?
A: inconclusive [inhibitor, partial curve]

Q: With `COc1ccc(C2C=C(c3ccccc3)Nc3ncnn32)cc1` (configuration not stated) as the molecule, how does the Potency read?
A: inconclusive [inhibitor, partial curve]

Q: Which Potency does the source give for `CCS(=O)(=O)Nc1ccc(Cc2ccc(NS(=O)(=O)CC)cc2)cc1` here?
A: active: 5.62 µM

Q: With `Cc1ccc(C)c(S(=O)(=O)Nc2ccccc2C(=O)Nc2cc(C)on2)c1` as the molecule, how does the Potency read?
A: inconclusive [inhibitor, partial curve]

Q: How did the activity change, negative = inhibition turn out when `CCOc1ccc(S(=O)(=O)n2nnc3ccccc32)cc1C(C)C` was run?
A: inactive: -3.96%

Q: `CC(Sc1nnc(-c2ccccc2)c(-c2ccccc2)n1)C(=O)Nc1ncc(Cl)cc1Cl` (configuration not stated) was tested. Which activity change, negative = inhibition did it give?
A: inactive: -24.1%

Q: For `O=C(OCC(=O)c1cccs1)c1ccccc1`, which Potency is on record?
A: active: 14.1 µM

Q: For `CCc1nnc(NC(=O)c2ccc(Cl)c(S(=O)(=O)N3CCc4ccccc43)c2)s1`, which Potency is on record?
A: inconclusive [inhibitor, partial curve, poor fit]

Q: `Oc1ccc(C(=S)N2CCCCCC2)cc1` was tested. Which Potency did it give?
A: inconclusive [inhibitor, single point]

Q: How did the Potency turn out when `O=C(O)c1c(NC(=O)c2cccc3ccccc23)sc2c1CCC2` was run?
A: active: 15.8 µM

Q: How did the Potency turn out when `COc1ccc(Nc2nc(N3CCCCC3)c3ccccc3n2)cc1` was run?
A: inconclusive [inhibitor, partial curve]

Q: For `O=C(CCCc1c[nH]c2ccccc12)N1CCN(c2ccc(N3CCOCC3)nn2)CC1`, which Potency is on record?
A: inconclusive [inhibitor, partial curve]

Q: For `CCOC(=O)c1ccc(NC(=O)COc2ccc(S(=O)(=O)NC(C)CC)cc2)cc1` (configuration not stated), which activity change, negative = inhibition is on record?
A: inactive: -9.95%

Q: With `c1nc2sc3c(c2c2nnnn12)CCC3` as the molecule, how does the Potency read?
A: inconclusive [inhibitor, partial curve]

Q: How did the Potency turn out when `Cc1nn(-c2ccccc2Cl)c(Cl)c1/C=N/Nc1nc2ccccc2s1` was run?
A: inconclusive [inhibitor, single point]

Q: With `COc1ccc(/C=C(\C#N)C(=O)OCC(=O)NCc2ccccc2)cc1` as the molecule, how does the Potency read?
A: inconclusive [inhibitor, partial curve]

Q: How did the Potency turn out when `S=C(Nc1ccccc1)N1CCn2c1nc1ccccc12` was run?
A: active: 15.8 µM

Q: Which Potency does the source give for `O=C(CSc1nc2c(sc3ccccc32)c(=O)n1CCCN1CCCC1)NCC1CCCO1` (configuration not stated) here?
A: inconclusive [inhibitor, partial curve]

Q: With `CC(=O)C1=C(O)C(=O)N(CCC(=O)O)C1c1ccc(Cl)cc1Cl` (configuration not stated) as the molecule, how does the Potency read?
A: inconclusive [inhibitor, partial curve]

Q: With `CN=c1scc(C)n1/N=C/c1ccc(O)c(O)c1O` as the molecule, how does the Potency read?
A: active: 7.08 µM

Q: For `COc1cc(O)c(NC(C)=O)c2nonc12`, which activity change, negative = inhibition is on record?
A: inactive: -4.11%

Q: `COc1ccc(/C=N/O)cc1COc1ccc(NC(C)=O)cc1` was tested. Which Potency did it give?
A: active: 25.1 µM

Q: `O=C(O)Cn1c(SCc2ccccc2)nc2ccccc21` was tested. Which activity change, negative = inhibition did it give?
A: inactive: -5.35%

Q: Which activity change, negative = inhibition does the source give for `CC(=O)c1c(Nc2ccccc2)sc(C(=O)c2ccccc2)c1C` here?
A: inactive: -1.98%

Q: `CSc1ccccc1NC(=O)CSCc1ccc(C)cc1` was tested. Which Potency did it give?
A: active: 15.8 µM

Q: With `CCOC(=O)N1CCC(N2Cc3cccc(C(=O)NCc4ccc(OC)cc4)c3C2=O)CC1` as the molecule, how does the activity change, negative = inhibition read?
A: inactive: -7.79%

Q: `CCOC(=O)C(C(=O)OCC)C1N=C(N)N=C2Oc3ccccc3N21` (configuration not stated) was tested. Which Potency did it give?
A: inconclusive [inhibitor, partial curve]

Q: With `O=C(Nc1ccc2oc(=O)ccc2c1)c1cc2ccccc2o1` as the molecule, how does the Potency read?
A: inconclusive [inhibitor, partial curve]

Q: How did the activity change, negative = inhibition turn out when `C=CCn1c(CNc2ccc(C)cc2)nnc1SCC(=O)N/N=C/c1ccc(O)cc1O` was run?
A: inactive: -13%

Q: How did the Potency turn out when `O=C(Nc1ccc(Cn2cccn2)cc1)c1ccc(COc2ccccc2Br)cc1` was run?
A: inconclusive [inhibitor, single point]

Q: Which Potency does the source give for `Cc1nc2c(C(=O)NCc3cccs3)cnn2c(C)c1Cc1ccccc1` here?
A: inconclusive [inhibitor, partial curve]

Q: For `COCCNc1nc(-c2ccc(N(C)C)cc2)nc2ccccc12`, which Potency is on record?
A: inconclusive [inhibitor, partial curve]

Q: Which Potency does the source give for `COc1ccc(C(=O)Nc2cc(-c3nn4c(C)nnc4s3)ccc2C)cc1` here?
A: inconclusive [inhibitor, single point]

Q: `O=C(Cc1cccs1)NNC(=O)c1ccc(F)cc1` was tested. Which activity change, negative = inhibition did it give?
A: inactive: -2.94%

Q: `O=C(C1CCN(c2ccc(N3CCOCC3)nn2)CC1)N1CCN(c2ccc(F)cc2)CC1` was tested. Which Potency did it give?
A: inconclusive [inhibitor, partial curve]

Q: `COc1cc(CCC(=O)N2CCN(c3ccc(N4CCOCC4)nn3)CC2)cc(OC)c1OC` was tested. Which Potency did it give?
A: inconclusive [inhibitor, partial curve]

Q: With `COc1ccc(C(=O)CSc2nnc(CN3CCCC3)n2-c2ccc(F)cc2)c(OC)c1` as the molecule, how does the activity change, negative = inhibition read?
A: inactive: -0.513%

Q: `C=CCSCC1Nc2cc(Cl)c(S(N)(=O)=O)cc2S(=O)(=O)N1` (configuration not stated) was tested. Which Potency did it give?
A: inconclusive [inhibitor, partial curve, poor fit]

Q: Which Potency does the source give for `O=C(NCc1ccc2c(c1)OCO2)c1ccc(CSCc2ccccc2Cl)o1` here?
A: inconclusive [inhibitor, single point]

Q: Which Potency does the source give for `Cc1cc2nn(-c3ccccc3)nc2cc1NC(=O)c1cccs1` here?
A: inconclusive [inhibitor, partial curve]

Q: How did the Potency turn out when `O=S(=O)(O)c1cc(N=Nc2cccc3ccccc23)c(O)c2ncccc12` was run?
A: inconclusive [inhibitor, single point]

Q: For `CCCc1cc(=O)[nH]c(SCc2cc(Cl)ccc2OC(F)F)n1`, which Potency is on record?
A: active: 14.1 µM

Q: With `O=C(c1ccccc1CCc1ccccc1)N1CCN(c2ccccn2)CC1` as the molecule, how does the Potency read?
A: inconclusive [inhibitor, single point]

Q: With `Cc1ccc(S(=O)(=O)Nc2ccccc2C(=O)Nc2ccc(S(=O)(=O)Nc3nccc(C)n3)cc2)cc1` as the molecule, how does the Potency read?
A: inconclusive [inhibitor, partial curve]

Q: How did the activity change, negative = inhibition turn out when `S=C(c1ccc2c(c1)OCO2)N1CCCCC1` was run?
A: inactive: -26.4%

Q: For `S=c1[nH]nc(-c2ccccn2)n1/N=C/c1cccs1`, which activity change, negative = inhibition is on record?
A: inactive: -19.1%

Q: How did the activity change, negative = inhibition turn out when `Cc1ccc(CN(CC(=O)N/N=C/c2ccco2)S(=O)(=O)c2ccc(C)cc2)cc1` was run?
A: inactive: -6.75%

Q: With `COc1ccccc1N1CCN(CC(O)COc2ccc3c(c2)CCC3)CC1` (configuration not stated) as the molecule, how does the activity change, negative = inhibition read?
A: inactive: -9.52%

Q: Which activity change, negative = inhibition does the source give for `O=C(c1ccc(Cl)cc1)c1coc2ccc(O)cc12` here?
A: inactive: -12.1%

Q: Which activity change, negative = inhibition does the source give for `Cc1ccc(S(=O)(=O)N/N=C/c2c(F)cccc2Cl)cc1` here?
A: inactive: -8.53%

Q: `Cc1ccc(C(C2=C(O)CC(C)(C)CC2=O)C2C(=O)CC(C)(C)CC2=O)o1` (configuration not stated) was tested. Which Potency did it give?
A: active: 3.55 µM

Q: `COc1cc(OC)cc(C(=O)N(CCCN2C(=O)c3cccc4cccc(c34)C2=O)c2cccc(OC)c2)c1` was tested. Which Potency did it give?
A: inconclusive [inhibitor, partial curve]

Q: How did the Potency turn out when `CCn1c(=O)cc(SCC(=O)Nc2cccc(SC)c2)c2ccccc21` was run?
A: inconclusive [inhibitor, partial curve, poor fit]

Q: Which Potency does the source give for `COc1ccc(C2C(C(C)=O)=C(C)N=c3s/c(=C\c4cc(C)n(C)c4C)c(=O)n32)c(OC)c1` (configuration not stated) here?
A: inconclusive [inhibitor, partial curve]

Q: How did the Potency turn out when `COc1ccc(-n2c(C)cc(C(=O)NC3CCCCC3)c2C)cc1` was run?
A: active: 1.12 µM

Q: `Cc1ccc(O)c(-c2cc(-c3ccccc3[N+](=O)[O-])[nH]n2)c1` was tested. Which Potency did it give?
A: active: 4.47 µM

Q: For `C=CCn1c(=O)[nH]c2cc(C(=O)N3CCN(c4ccc(C(C)=O)cc4)CC3)ccc2c1=O`, which Potency is on record?
A: inconclusive [inhibitor, partial curve]

Q: With `O=C(O)CCNCC(=O)O` as the molecule, how does the activity change, negative = inhibition read?
A: inactive: -1.29%

Q: With `COC(=O)CC(=O)CSc1nc2c(cc1C#N)CCCCC2` as the molecule, how does the Potency read?
A: inconclusive [inhibitor, single point]

Q: `C=CCc1cccc(/C=N/c2nc3ccccc3n2CC)c1O` was tested. Which activity change, negative = inhibition did it give?
A: inactive: -2.42%

Q: Which activity change, negative = inhibition does the source give for `CC(C)C(=O)Cc1ccc2ccccc2n1` here?
A: inactive: -3.34%
